“And” between values parts separate entries of the source, which are not always exact repeats. Equal entries are not always repeated.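 A five-concentration, 48-hour dose response in 96-well plates underlies each endpoint, interpolated linearly between surrounding concentrations. GI50 is the concentration that inhibits growth by half. TGI is the concentration that stops growth completely.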
Test system: NCI-H322M lung
Experiment: DTP human tumour cell line panel, 48 h

SMILES | GI50 | TGI
COc1cc(OC)cc(-c2nc3sccn3c2/C=N/N=C(N)N)c1 | 5.99 µM | 12.1 µM
CCCCOc1c(C(=O)O)cc(Br)cc1C(=O)O |  | > 100 µM
COc1ccc(C(C#N)=C2C=CC(=NO)C=C2)cc1 | 5.43 µM | 18.1 µM
C=CCNc1nc(O)c(/C=C2\C=Nc3ncccc32)s1 | 2.19 µM | > 100 µM
Cc1c(NC(=O)CCl)c(=O)oc2c(C)c3occc(=O)c3cc12 |  | 31.4 µM
CC(N)Cc1ccc(Cl)cc1 (centres undefined) |  | > 100 µM
C[C@]12CC[C@@H]3c4ccc(O)cc4CC[C@H]3[C@@H]1CC[C@@H]2NS(=O)(=O)c1cccc(Cl)c1 | 4.62 µM | 17.7 µM
O=C(Nc1ccc2ncnc(Nc3ccc(Oc4cccc(F)c4)c(Cl)c3)c2c1)c1ccc(CN2CCOCC2)cc1 | 2.37 µM | 12.6 µM
N=c1n(CC(=O)NC23CC4CC(CC(C4)C2)C3)c2ccccc2n1CC(=O)NC12CC3CC(CC(C3)C1)C2 |  | 6.35 µM
COc1cccc2c1C(=O)c1c(O)c3c(c(O)c1C2=O)C[C@@](O)(C(=O)CN1CCOCC1)C[C@@H]3OC1CC(N)C(O)C(C)O1 (some centres undefined) |  | > 84.3 µM
Nc1ncnc2c1sc(=S)n2-c1ccccc1 |  | > 100 µM
Nc1nc(Nc2ccc(Cl)cc2)sc1C(=O)c1c[nH]c2ccccc12 |  | 38.3 µM
O=C(N/N=C\c1cccs1)c1ccncc1 |  | > 100 µM
Cc1ccc(NC(=O)C(=O)C(C(=O)c2ccc3ccccc3c2)C2OC(=O)c3ccccc32)c(C)c1 (centres undefined) |  | 31.1 µM
C=CC(C)(C)C1(CC(OC)OC)C(=O)N(C)c2ccccc21 (centres undefined) |  | > 25 µM
CCOc1cc(C(=O)O)c2c(ccc3ccc(OC)c(OC)c32)c1OC |  | > 100 µM
CC(=O)NNc1nc(C)c(C(/C=C/c2ccc([N+](=O)[O-])cc2)=N/NC(N)=O)s1 |  | > 100 µM
N#CNC(=NCc1ccccc1)NCCc1c[nH]c2ccccc12 |  | > 100 µM
COC(=O)CCCC1(CCCC(=O)OC)CCCCCCCCC(CCCC(=O)OC)(CCCC(=O)OC)C(=O)C1=O |  | > 100 µM
O=C(/C=C/c1ccc(OCc2ccccc2)cc1)NCc1ccc(C(=O)NCc2ccccc2)cc1 |  | > 100 µM
CCn1c(-c2c(Cl)cc(O)cc2Cl)cc2c(Cl)cc(O)cc21 |  | 32.8 µM
CCCCCCCCCC(O)CC(=O)c1c(O)cccc1O (centres undefined) |  | 53.7 µM
CCCc1n[nH]c(=O)n1N1C(=O)C=CC1=O |  | > 100 µM
COc1cc(N)c2[nH]c3c(C)ccc(C)c3c2c1 |  | > 100 µM
Nc1ncnc2c1ncn2CCCC(c1ccccc1)P(=O)(O)O (centres undefined) |  | > 100 µM
O=c1/c(=C/c2c(O)ccc3ccccc23)sc2nc3ccccc3n12 |  | > 100 µM

SMILES | GI50 | TGI
c1ccc2[nH]c3c(N=NC4=NCCN4)c4ccccc4c-3nc2c1 |  | 14.6 µM
COc1cc(-c2nn(-c3cccc(NC(=O)NCCNS(=O)(=O)c4ccc(Cl)cc4)c3)cc2-c2ccncc2)ccc1Cl | 1.81 µM | 8.1 µM
Clc1ccccc1[C@@H]1C[C@@H]2Cc3cc(Br)c4ccccc4c3N1O2 | > 100 µM | > 100 µM
O=C1NC(=O)[C@@]2(CC[C@@H](O)C2)c2ccncc21 |  | > 100 µM
O=c1cc(-c2ccccc2)oc2ccc(OC/C(=N/O)c3ccc(F)cc3)cc12 | 5.1 µM | 24.1 µM
COc1ccc(C(=O)c2c(-c3ccccc3NC(=O)C(F)(F)F)[nH]c3ccccc23)cc1 |  | 20.6 µM
CCNC(=O)NNc1ncnc2c1c(-c1ccc(Cl)cc1)cn2-c1ccc(C)cc1 |  | 62.8 µM
C/C(=N/NC(=S)Nc1cccc(Cl)c1)c1ccccn1 |  | 16 µM
CCn1c(-c2ccc(OC)cc2)nc2c1C(=O)c1ccccc1C2=O |  | > 100 µM
N#C/C=c1/c2ccccc2n2nc3ccccc3c12 |  | > 100 µM
CCOP(=O)(OCC)/C(C#N)=C\c1ccsc1 |  | > 100 µM
COC(NC(N)=O)C(=O)O (centres undefined) |  | > 100 µM
CC(C)=O.O=C([O-])C(F)(F)F.O=C([O-])C(F)(F)F.O=C([O-])C(F)(F)F.O=C([O-])C(F)(F)F.[Rh+2].[Rh+2] | > 100 µM | > 100 µM
N=S(=O)(c1ccccc1)c1ccccc1 |  | > 100 µM
COc1cccc(Sc2ccc([N+](=O)[O-])c3no[n+]([O-])c23)c1 | 37.4 µM | > 100 µM
CCCCCCCCCCCC[N+](C)(C)Cc1ccccc1 | 17 µM | 32.8 µM
O=C(O)/C=C/c1ccc[c]([Sb](=[O])([OH])[OH])c1 | > 100 µM | > 100 µM
O=C(O)C(Br)C(Br)C(=O)O (centres undefined) |  | > 100 µM
O=C1CCCCC/C1=C\c1cccc([N+](=O)[O-])c1 |  | > 100 µM
C=CCOC(=O)c1c(C)n([O-])c2cc(Cl)c(Cl)cc2[n+]1=O |  | 85.7 µM
CN(C)C(=S)/N=c1\ssc(=S)n1Cc1cccs1 |  | > 100 µM
O=C(OCC1CCCN2CCCCC12)c1cccnc1 (centres undefined) |  | > 100 µM
Oc1cc(Cl)cc2cc(Cl)cnc12 |  | > 100 µM
O=C1C=CC(=O)C2C1Cc1ccccc1C2c1ccccc1 (centres undefined) |  | > 100 µM
COc1cc(OCc2nc3cc(C(F)(F)F)ccc3nc2-c2ccccc2)cc(OC)c1OC |  | > 100 µM
CCC[CH2][Sn]([CH2]CCC)([CH2]CCC)[O]C(=O)C(OC(C)=O)c1ccccc1 (centres undefined) | 0.153 µM | 0.339 µM

SMILES | GI50 | TGI
NC(=S)Nc1ccc2c(c1)oc1ccccc12 |  | > 100 µM
COC(=O)c1ccccc1NC(=S)NN(C)C |  | > 100 µM
Cn1c(=O)c2c(nc3n2CCC(=O)N3CCCCl)n(C)c1=O |  | > 100 µM
CN(C)CCNC(=O)c1cccc2nc3ccc4cccnc4c3nc12 |  | 3.43 µM
COc1cc(O)c(C(=O)CC(C)=O)c(OC)c1 |  | > 100 µM
C[C@@H](NC(=O)[C@@H]1C[C@]1(C)CO)c1cccc2ccccc12 |  | > 100 µM
Cc1cn(CCC(N)C(=O)O)c(=O)[nH]c1=O (centres undefined) |  | > 100 µM
CCCCCCCCCCCCCCCCNCC(O)CN (centres undefined) |  | 13 µM
O=C(CNc1nccs1)Nn1cnc2ccc(S(=O)(=O)Nc3nccs3)cc2c1=O |  | > 100 µM
CCCCC[C@H]1CC=C2C(=O)C=C[C@@H]2CC=CCCCC(=O)O[C@@H](CCCCC)CC=C2C(=O)C=C[C@@H]2CC=CCCCC(=O)O[C@@H](CCCCC)CC=C2C(=O)C=C[C@@H]2CC=CCCCC(=O)O1 | 1.56 µM | > 8.75 µM
COC1(OC)C2(Cl)C(Cl)=C(Cl)C1(Cl)C1c3ccc(C(C)=O)c4cccc(c34)C12 (centres undefined) |  | > 100 µM
CN(C)c1ccc(C(=N)c2ccc(N(C)C)cc2)cc1 | 9.53 µM and 14.3 µM | 69.9 µM and > 100 µM
O=C(O)C1CCN(Cc2oc(CO)cc(=O)c2O)C1 (centres undefined) |  | > 100 µM
N#CCCN(CCC#N)c1ccc(/C=C2\SC(=S)NC2=O)cc1 |  | > 100 µM
O=C(NC12CC3CC(CC(C3)C1)C2)C(=O)c1c[nH]c2ccc(Br)cc12 |  | > 100 µM
O=C1NCN(c2ccccc2)C12CCN(CCCC(c1ccc(F)cc1)c1ccc(F)cc1)CC2 | 4.09 µM | 16.6 µM
CNC(=O)c1cc2nc3ccccc3c(=O)n2c2ccccc12 |  | > 10 µM
CN(C)C[C@H]1CCn2c(c(C3=C(c4cn(C)c5ccccc45)C(=O)NC3=O)c3ccccc32)C1 | 4.32 µM | 12.2 µM
Nc1ncnc2c1c(-c1ccc(Oc3ccccc3)cc1)nn2C[C@H]1SSC[C@@H]1O | 2.39 µM | 26.6 µM
O=C1NC(O)c2ccccc2O1 (centres undefined) |  | > 100 µM
C/C(=N/NC(=S)N(C)C)c1ccccc1O |  | > 100 µM
CO[C@H]1CC[C@]2(C)C3=CC[C@@]4(C)C(CC[C@@H]4C(C)CC[C@@H](C)C(C)C)C(=CCC2C1)O3 (some centres undefined) |  | > 25 µM
CCOC(=O)CCC(NC(=O)c1ccc(Nc2nc3cc(C(F)(F)F)ccc3nc2C(=O)OCC)cc1)C(=O)OCC (centres undefined) |  | 24.8 µM
O=S(c1ccccc1)C1CC2CC3(CCC21O)OCCO3 (centres undefined) |  | > 100 µM
